The values that follow come from PubChem BioAssay AID1745853 (National Center for Advancing Translational Sciences (NCATS), 2022).

The other results are listed elsewhere or left out. These are further read-outs of the screen, such as a control signal, another cell line or another target. No call is given for them.

Assay in all cases: Primary Screen for Target Class Profiling of Small Molecule Inhibitors of Methyltransferases
Experiment [1] concerns the target Glycine N-methyltransferase (Homo sapiens) (UniProt Q14749). The note with it: purified enzyme, MTase-Glo SAH luminescence; measured here: GNMT inhibition; at 40 µM; stronger effect = lower value. An outline of the steps:
(§1)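 Each enzyme was assayed with SAM and its substrate. SAH formation detected by MTase-Glo luminescence; single-point 40 uM screen[…].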

In experiment [2] the target is Guanidinoacetate N-methyltransferase (Homo sapiens) (UniProt Q14353). The note with it: purified enzyme, MTase-Glo SAH luminescence; measured here: GAMT inhibition; at 40 µM; stronger effect = lower value. An outline of the steps: as §1
Experiment [3] concerns the target Histamine N-methyltransferase (Homo sapiens) (UniProt P50135). The note with it: purified enzyme, MTase-Glo SAH luminescence; measured here: HNMT inhibition; at 40 µM; stronger effect = lower value. The method, boiled down:
as §1

For experiment [4], the target named is Nicotinamide N-methyltransferase (Homo sapiens) (UniProt P40261). The note with it: purified enzyme, MTase-Glo SAH luminescence; measured here: NNMT inhibition; at 40 µM; stronger effect = lower value. An outline of the steps:
as §1

In experiment [5] the target is Phenylethanolamine N-methyltransferase (Homo sapiens) (UniProt P11086). The note with it: purified enzyme, MTase-Glo SAH luminescence; measured here: PNMT inhibition; at 40 µM; stronger effect = lower value. An outline of the steps: as §1
On the % scale 0 is the no-effect control and ±100 the full control effect.

For `CCN(CC)Cc1nnc2cc(-c3nc(-c4ccccc4)no3)ccn12`, the activity change, negative = inhibition in experiment [1] was -4.78%; in experiment [2] it was 0.459%; in experiment [3], 1.31%; in experiment [4], 2.86%; in experiment [5], 9.54%.

As for `Cc1ccc(Cn2c(=O)c3ccccc3n3c(-c4ccccc4)nnc23)cc1`, the activity change, negative = inhibition in experiment [1] was -7.43%; in experiment [2], 3.65%; in experiment [3], 6.74%; in experiment [4], 1.74%; in experiment [5], -0.344%.

On to `CCC(C)NC(=O)c1ccc2c(=O)n(C(C)C)c3nn(Cc4cc(C)ccc4C)c(=O)n3c2c1` (stereo not given), for which the activity change, negative = inhibition in experiment [1] is -0.403%; in experiment [2] it was 4.93%; in experiment [3] it was -0.539%; in experiment [4], -1.69%; in experiment [5] it was 0.551%.

On to `O=C(Cn1cncn1)N1CCc2onc(C(c3ccccc3)c3ccccc3)c2C1`, for which the activity change, negative = inhibition in experiment [1] was -4.25%; in experiment [2], -5.53%; in experiment [3], -1.68%; in experiment [4] it was -14.5%; in experiment [5], -3.12%.

Regarding `Cc1ccc(-c2cn(CC3CCCN(c4cc(C)nc(N)n4)C3)nn2)cc1` (stereo not given), the activity change, negative = inhibition in experiment [1] was -8.38%; in experiment [2], -0.23%; in experiment [3], -45.5%; in experiment [4] it was -2.41%; in experiment [5] it was -5.18%.

In the case of `O=C(c1ccc(OC(F)F)cc1)N1C[C@H](CO)C[C@H](CN2CCCC2)C1`, the activity change, negative = inhibition in experiment [1] was -6.58%; in experiment [2], -7.74%; in experiment [3], -4.36%; in experiment [4] it was -13.6%; in experiment [5], -6.19%.

As to `CCNc1ncc(CN2CCN(c3ccncc3)CC2)cn1`, the activity change, negative = inhibition was -2.22% in experiment [1]; -3.21% in experiment [2]; -57.9% in experiment [3]; -3.27% in experiment [4]; -0.571% in experiment [5].

As to `C1=C(c2nc(-c3ccncc3)cc3c2ccn3Cc2cccnc2)CCOC1`, the activity change, negative = inhibition in experiment [1] is -53.7%; in experiment [2], -39.5%; in experiment [3] it was -54.8%; in experiment [4] it was -46.2%; in experiment [5] it was -64.1%.

As to `COc1ccc(C)cc1N1C(=O)Cn2cccc2C1C(=O)NC1CCC(C)CC1` (stereo not given), the activity change, negative = inhibition in experiment [1] was -0.269%; in experiment [2] it was 7.55%; in experiment [3], -2.83%; in experiment [4] it was -3.48%; in experiment [5], -2.38%.

As to `CC(=O)Nc1ccc(Nc2nc3c(S(=O)(=O)c4ccc(C)cc4)nnn3c3ccc(Cl)cc23)cc1`, the activity change, negative = inhibition in experiment [1] is -22.4%; in experiment [2], 0%; in experiment [3] it was 5.67%; in experiment [4], -7.15%; in experiment [5] it was -6.48%.

Regarding `C/C=C/C1=CC2=C(CO1)C(=O)C(C)(O)C(OC(=O)c1c(C)cc(OC)cc1O)C2` (stereo not given), the activity change, negative = inhibition in experiment [1] is -7.56%; in experiment [2], -2.2%; in experiment [3] it was 10.3%; in experiment [4], -16.8%; in experiment [5] it was -11.5%.

`COc1cc([C@H]2c3cc(O)c(OC)cc3C[C@@H](CO[C@@H]3O[C@H](CO)[C@@H](O)[C@H](O)[C@H]3O)[C@@H]2CO)ccc1O`: the activity change, negative = inhibition in experiment [1] is -0.413%; in experiment [2], -4.36%; in experiment [3] it was 4.03%; in experiment [4], -13.7%; in experiment [5], -10.4%.

`O=C1NC2(CCN(Cc3ccsc3)C2)Oc2ccccc21` (stereo not given): the activity change, negative = inhibition in experiment [1] is -11.1%; in experiment [2], -10.6%; in experiment [3] it was -4.91%; in experiment [4], -23.2%; in experiment [5], -26.8%.

On to `CC1(C(=O)NC2CCCC2)Cn2c(cc3ccccc32)C(=O)N1Cc1ccccc1` (stereo not given), for which the activity change, negative = inhibition was 0.224% in experiment [1]; 0.014% in experiment [2]; 3.09% in experiment [3]; -0.261% in experiment [4]; -2.98% in experiment [5].

As for `Cc1ccsc1CCNC(=O)CCc1nnc2n(CCc3ccccc3)c(=O)c3ccccc3n12`, the activity change, negative = inhibition in experiment [1] was -13.7%; in experiment [2] it was -2.88%; in experiment [3], -8.77%; in experiment [4] it was -24.4%; in experiment [5] it was -13.8%.

Take `CC(C)Cn1c(=O)c2ccccc2n2c(SCC(=O)NCc3ccccc3Cl)nnc12`: the activity change, negative = inhibition in experiment [1] is -7.58%; in experiment [2], -11.9%; in experiment [3] it was 9.43%; in experiment [4], -17.2%; in experiment [5], -4.12%.

For the compound `COC(=O)c1cc2n(n1)CC(C)(C(=O)NC1CCCC1)N(c1ccc(F)cc1C)C2=O` (stereo not given), the activity change, negative = inhibition in experiment [1] is -0.288%; in experiment [2], -0.933%; in experiment [3], 3.56%; in experiment [4] it was 2.41%; in experiment [5], -1.49%.
